In patent publication US8722849B2, “Polypeptides” (Novo Nordisk A/S, priority 2011, dated 2014):
The name of at least one read-out is uncertain. Starred links: 1 amine or outer side, 2 acyl side, 3 side chain; linkers in the order of their positions; H or OH if unused. Positions of bridges follow the written chain, without caps; N, C: chain ends. Residues, ends and D or L forms follow the SMILES beside them. *: point of attachment. C20 diacid = O=C(O)CCCCCCCCCCCCCCCCCCC(=O)*; γGlu = O=C(O)[C@H](CCC(=O)[*:2])N[*:1]

Assay: Assay (III) ThT fibrillation assay for physical stability
Type: physicochemical
Conditions: ThT fibrillation assay
Text: ASSAY (III)—ThT Fibrillation Assays for the Assessment of Physical Stability of Protein formulations Low physical stability of a polypeptide may lead to amyloid fibril formation, which is observed as well-ordered, thread-like macromolecular structures in the sample eventually resulting in gel formation. This has traditionally been measured by visual inspection of the sample. However, that kind of measurement is very subjective and depending on the observer. Therefore, the application of a small molecule indicator probe is much more advantageous. Thioflavin T (ThT) is such a probe and has a distinct fluorescence signature when binding to fibrils [Naiki et al. (1989) Anal. Biochem. 177, 244-249; LeVine (1999) Methods. Enzymol. […], 274-284]. The time course for fibril formation can be described by a sigmoidal curve with the following expression [Nielsen et al. (2001) Biochemistry 40, 6036-6046]: [formula] Here, F is the ThT fluorescence at the time t. The constant t0 is the time needed to reach 50% of maximum fluorescence. […] Few of those intermediates nucleate to form a template onto which further intermediates may assembly and the fibrillation proceeds. The lag-time corresponds to the interval in which the critical mass of nucleus is built up and the apparent rate constant is the rate with which the fibril itself is formed. Sample Preparation Samples were prepared freshly before each assay. Each sample composition is described in each example. The pH of the sample was adjusted to the desired value using appropriate amounts of concentrated NaOH and HClO4 or HCl. Thioflavin T was added to the samples from a stock solution in H2O to a final concentration of 1 μM. Sample aliquots of 200 μl were placed in a 96 well microtiter plate (Packard OptiPlate™-96, white polystyrene). Usually, four or eight replica of each sample (corresponding to one test condition) were placed in one column of wells. The plate was sealed with Scotch Pad (Qiagen). Incubation and Fluorescence Measurement Incubation at given temperature, shaking and measurement of the ThT fluorescence emission were done in a Fluoroskan Ascent FL fluorescence platereader or Varioskan platereader (Thermo Labsystems). The temperature was adjusted to 37° C. The orbital shaking was adjusted to 960 rpm with an amplitude of 1 mm in all the presented data. Fluorescence measurement was done using excitation through a 444 nm filter and measurement of emission through a 485 nm filter. Each run was initiated by incubating the plate at the assay temperature for 10 min. The plate was measured every 20 minutes for a desired period of time. Between each measurement, the plate was shaken and heated as described. Data Handling The measurement points were saved in Microsoft Excel format for further processing and curve drawing and fitting was performed using GraphPad Prism. The background emission from ThT in the absence of fibrils was negligible. The data points are typically a mean of four or eight samples and shown with standard deviation error bars. Only data obtained in the same experiment (i.e. samples on the same plate) are presented in the same graph ensuring a relative measure of fibrillation between experiments. The data set may be fitted to Eq. (1). However, since full sigmodial curves in this case are not always achieved during the measurement time, the degree of fibrillation is expressed as ThT fluorescence tabulated as the mean of the samples and shown with the standard deviation at various time points. Measurement of Initial and Final Concentrations The polypeptide concentration in each of the tested formulations were measured both before application in the ThT fibrillation assay (“Initial”) and after completion of the ThT fibrillation (“After ThT assay”). Concentrations were determined by reverse HPLC methods using a pramlintide standard as a reference. Before measurement after completion 150 μl was collected from each of the replica and transferred to an Eppendorf tube. […]

Structure (SMILES) | ThT pH 4.0 recovery (%) | ThT pH 4.0 recovery
CC[C@H](C)[C@H](NC(=O)[C@@H]1CCCN1C(=O)CNC(=O)[C@H](Cc1ccccc1)NC(=O)[C@H](CC(N)=O)NC(=O)[C@H](CCC(N)=O)NC(=O)[C@H](CO)NC(=O)[C@H](CO)NC(=O)[C@H](Cc1c[nH]cn1)NC(=O)[C@@H](NC(=O)[C@H](CC(C)C)NC(=O)[C@H](Cc1ccccc1)NC(=O)[C@H](CCC(=O)O)NC(=O)[C@H](C)NC(=O)[C@H](CC(C)C)NC(=O)[C@H](CCCNC(=N)N)NC(=O)[C@H](CCC(N)=O)NC(=O)[C@@H](NC(=O)[C@H](C)NC(=O)[C@@H]1CSSC[C@H](NC(=O)[C@H](CCCCN)NC(=O)CC[C@H](NC(=O)CCCCCCCCCCCCCCCCCCC(=O)O)C(=O)O)C(=O)N[C@@H](CC(N)=O)C(=O)N[C@@H]([C@@H](C)O)C(=O)N[C@@H](C)C(=O)N[C@@H]([C@@H](C)O)C(=O)N1)[C@@H](C)O)C(C)C)C(=O)N[C@@H](CC(C)C)C(=O)N1CCC[C@H]1C(=O)N1CCC[C@H]1C(=O)N[C@H](C(=O)N[C@@H](CC(N)=O)C(=O)N[C@H](C(=O)NCC(=O)N[C@@H](CO)C(=O)N[C@@H](CCC(N)=O)C(=O)N[C@H](C(=O)N1CCC[C@H]1C(N)=O)[C@@H](C)O)C(C)C)[C@@H](C)O [Example 139, N-alpha-[(S)-4-Carboxy-4-(19-carboxynonadecanoylamino)butyryl]-[Glu14,Gln21,Gln35,Pro37]-pramlintide] ({C20 diacid-γGlu}-KCNTATCATQRLAEFLVHSSQNFGPILPPTNVGSQTP-NH2; disulfide 2-7 (inferred)) | 31% | 
CC[C@H](C)[C@H](NC(=O)[C@@H]1CCCN1C(=O)CNC(=O)[C@H](Cc1ccccc1)NC(=O)[C@H](CC(N)=O)NC(=O)[C@H](CC(N)=O)NC(=O)[C@H](CO)NC(=O)[C@H](CO)NC(=O)[C@H](Cc1c[nH]cn1)NC(=O)[C@@H](NC(=O)[C@H](CC(C)C)NC(=O)[C@H](Cc1ccccc1)NC(=O)[C@H](CCC(=O)O)NC(=O)[C@H](C)NC(=O)[C@H](CC(C)C)NC(=O)[C@H](CCCNC(=N)N)NC(=O)[C@H](CCC(N)=O)NC(=O)[C@@H](NC(=O)[C@H](C)NC(=O)[C@@H]1CSSC[C@H](NC(=O)[C@H](CCCCN)NC(=O)CC[C@H](NC(=O)CCCCCCCCCCCCCCCCCCC(=O)O)C(=O)O)C(=O)N[C@@H](CC(N)=O)C(=O)N[C@@H]([C@@H](C)O)C(=O)N[C@@H](C)C(=O)N[C@@H]([C@@H](C)O)C(=O)N1)[C@@H](C)O)C(C)C)C(=O)N[C@@H](CC(C)C)C(=O)N1CCC[C@H]1C(=O)N1CCC[C@H]1C(=O)N[C@H](C(=O)N[C@@H](CC(N)=O)C(=O)N[C@H](C(=O)NCC(=O)N[C@@H](CO)C(=O)N[C@@H](Cc1c[nH]cn1)C(=O)N[C@H](C(=O)N[C@@H](Cc1ccc(O)cc1)C(N)=O)[C@@H](C)O)C(C)C)[C@@H](C)O [Example 93, N-alpha-[(S)-4-Carboxy-4-(19-carboxynonadecanoylamino)butyryl]-[Glu14,His35]-pramlintide] ({C20 diacid-γGlu}-KCNTATCATQRLAEFLVHSSNNFGPILPPTNVGSHTY-NH2; disulfide 2-7 (inferred); C-terminus assumed) | 0% | 
CC[C@H](C)[C@H](NC(=O)[C@@H]1CCCN1C(=O)CNC(=O)[C@H](Cc1ccccc1)NC(=O)[C@H](CC(N)=O)NC(=O)[C@H](CC(N)=O)NC(=O)[C@H](CO)NC(=O)[C@H](CO)NC(=O)[C@H](CCCNC(=N)N)NC(=O)[C@@H](NC(=O)[C@H](CC(C)C)NC(=O)[C@H](Cc1ccccc1)NC(=O)[C@H](CCC(=O)O)NC(=O)[C@H](C)NC(=O)[C@H](CC(C)C)NC(=O)[C@H](CCCNC(=N)N)NC(=O)[C@H](CCC(N)=O)NC(=O)[C@@H](NC(=O)[C@H](C)NC(=O)[C@@H]1CSSC[C@H](NC(=O)[C@H](Cc2c[nH]cn2)NC(=O)CC[C@H](NC(=O)CCCCCCCCCCCCCCCCCCC(=O)O)C(=O)O)C(=O)N[C@@H](CC(N)=O)C(=O)N[C@@H]([C@@H](C)O)C(=O)N[C@@H](C)C(=O)N[C@@H]([C@@H](C)O)C(=O)N1)[C@@H](C)O)C(C)C)C(=O)N[C@@H](CC(C)C)C(=O)N1CCC[C@H]1C(=O)N1CCC[C@H]1C(=O)N[C@H](C(=O)N[C@@H](CC(N)=O)C(=O)N[C@H](C(=O)NCC(=O)N[C@@H](CO)C(=O)N[C@@H](CC(N)=O)C(=O)N[C@H](C(=O)N1CCC[C@H]1C(N)=O)[C@@H](C)O)C(C)C)[C@@H](C)O [Example 143, N-alpha-[(S)-4-Carboxy-4-(19-carboxynonadecanoylamino)butyryl]-[His1,Glu14,Arg18,Pro37]-pramlintide] ({C20 diacid-γGlu}-HCNTATCATQRLAEFLVRSSNNFGPILPPTNVGSNTP-NH2; disulfide 2-7 (inferred)) | 0% | 
CC[C@H](C)[C@H](NC(=O)[C@@H]1CCCN1C(=O)CNC(=O)[C@H](Cc1ccccc1)NC(=O)[C@H](CC(N)=O)NC(=O)[C@H](CC(N)=O)NC(=O)[C@H](CO)NC(=O)[C@H](CO)NC(=O)[C@H](Cc1c[nH]cn1)NC(=O)[C@H](CCCNC(=N)N)NC(=O)[C@H](CC(C)C)NC(=O)[C@H](Cc1ccccc1)NC(=O)[C@H](CCC(=O)O)NC(=O)[C@H](C)NC(=O)[C@H](CC(C)C)NC(=O)[C@H](CCCNC(=N)N)NC(=O)[C@H](CCC(N)=O)NC(=O)[C@@H](NC(=O)[C@H](C)NC(=O)[C@@H]1CSSC[C@H](NC(=O)[C@H](CCCCN)NC(=O)[C@H](CCC(=O)O)NC(=O)CC[C@H](NC(=O)CCCCCCCCCCCCCCCCCCC(=O)O)C(=O)O)C(=O)N[C@@H](CC(N)=O)C(=O)N[C@@H]([C@@H](C)O)C(=O)N[C@@H](C)C(=O)N[C@@H]([C@@H](C)O)C(=O)N1)[C@@H](C)O)C(=O)N[C@@H](CC(C)C)C(=O)N1CCC[C@H]1C(=O)N1CCC[C@H]1C(=O)N[C@H](C(=O)N[C@@H](CC(N)=O)C(=O)N[C@H](C(=O)NCC(=O)N[C@@H](CO)C(=O)N[C@@H](Cc1c[nH]cn1)C(=O)N[C@H](C(=O)N[C@@H](Cc1ccc(O)cc1)C(N)=O)[C@@H](C)O)C(C)C)[C@@H](C)O [Example 58, N-alpha-[(S)-4-Carboxy-4-(19-carboxynonadecanoylamino)butyryl]-Glu-[Glu14,Arg17,His35]-pramlintide] ({C20 diacid-γGlu}-EKCNTATCATQRLAEFLRHSSNNFGPILPPTNVGSHTY-NH2; disulfide 3-8 (inferred); C-terminus assumed) | 97% | 97%
CC[C@H](C)[C@H](NC(=O)[C@@H]1CCCN1C(=O)CNC(=O)[C@H](Cc1ccccc1)NC(=O)[C@H](CC(N)=O)NC(=O)[C@H](CC(=O)O)NC(=O)[C@H](CO)NC(=O)[C@H](CO)NC(=O)[C@H](Cc1c[nH]cn1)NC(=O)[C@H](Cc1c[nH]cn1)NC(=O)[C@H](CC(C)C)NC(=O)[C@H](Cc1ccccc1)NC(=O)[C@H](CCC(=O)O)NC(=O)[C@H](C)NC(=O)[C@H](CC(C)C)NC(=O)[C@H](CCCNC(=N)N)NC(=O)[C@H](CCC(N)=O)NC(=O)[C@@H](NC(=O)[C@H](C)NC(=O)[C@@H]1CSSC[C@H](NC(=O)[C@H](CCCCN)NC(=O)CC[C@H](NC(=O)CCCCCCCCCCCCCCCCCCC(=O)O)C(=O)O)C(=O)N[C@@H](CC(N)=O)C(=O)N[C@@H]([C@@H](C)O)C(=O)N[C@@H](C)C(=O)N[C@@H]([C@@H](C)O)C(=O)N1)[C@@H](C)O)C(=O)N[C@@H](CC(C)C)C(=O)N1CCC[C@H]1C(=O)N1CCC[C@H]1C(=O)N[C@H](C(=O)N[C@@H](CC(N)=O)C(=O)N[C@H](C(=O)NCC(=O)N[C@@H](CO)C(=O)N[C@@H](Cc1c[nH]cn1)C(=O)N[C@H](C(=O)N[C@@H](Cc1ccc(O)cc1)C(N)=O)[C@@H](C)O)C(C)C)[C@@H](C)O [Example 128, N-alpha-[(S)-4-Carboxy-4-(19-carboxynonadecanoylamino)butyryl]-[Glu14,His17,Asp21,His35]-pramlintide] ({C20 diacid-γGlu}-KCNTATCATQRLAEFLHHSSDNFGPILPPTNVGSHTY-NH2; disulfide 2-7 (inferred); C-terminus assumed) | 96% | 96%
